Source: patent US20200079850A1 (SUTRO BIOPHARMA, published 2020)

Biological target: T1, hPD1 (Acro Biosystems), SPR analyte (human, UniProt Q15116 in part)
T1 construct: also called human PD1 kinetics
Assay: SPR (Biacore), antibody captured by anti-Fc, hPD1 as analyte, 25 C
Protocol: Anti-Fc polyclonal antibodies were immobilized onto a CMS chip (GE Life Sciences) using amine coupling chemistry (from Amine Coupling Kit, GE Life Sciences). The immobilization steps were carried out at a flow rate of 25 μl/min in 1×HBS-EP+buffer (GE Life Sciences; 10× Stock diluted before use). The sensor surfaces were activated for 7 min with a mixture of NHS (0.05 M) and EDC (0.2 M). The Anti-Fc antibodies were injected over all 4 flow cells at a concentration of 25 ug/ml in 10 mM sodium acetate, pH 4.5, for 7 min. Ethanolamine (1 M, pH 8.5) was injected for 7 min to block any remaining activated groups. An average of 12,000 response units (RU) of capture antibody was immobilized on each flow cell.
Kinetic binding experiments were performed at 25° C. using 1×HBS-EP+buffer. Test and control antibodies were injected over the anti-Fc surface at concentrations of 5-10 μg/mL for 12 seconds at a flow rate of 10 μl/min on flow cells 2, 3 and 4, followed by a buffer wash for 30 seconds at the same flow rate. Kinetic characterization of antibody samples was carried out with a dilution series of antigen and 1 injection of 0 nM antigen. After capturing ligand (antibody) on the anti-Fc surface, the analyte (hPD1 or hLAG3, Acro Biosystems, Newark, Del.) was bound at 100, 25, 6.25 and 0 nM for 180 seconds, followed by a 450 second dissociation phase at a flow rate of 50 μl/min. Between each ligand capture and analyte binding cycle, regeneration was carried out using 2 injections of 10 mM Glycine pH 2.0 for 30 seconds at 30 μL/min, followed by a 30 second buffer wash step.
The data was fit with the Biacore T200 Evaluation software, using a 1:1 Langmuir binding model. KD (affinity, nM) was determined as a ratio of the kinetic rate constants calculated from the fits of the association and dissociation phases.

T1 sequence (Q15116 25-167 limits assumed): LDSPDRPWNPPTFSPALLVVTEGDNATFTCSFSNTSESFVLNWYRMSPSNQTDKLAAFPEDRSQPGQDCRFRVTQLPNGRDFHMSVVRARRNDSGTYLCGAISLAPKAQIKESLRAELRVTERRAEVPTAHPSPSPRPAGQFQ

| Binder | Kd | koff | kon |
| --- | --- | --- | --- |
| Construct P: 1353-G10 R28D/P30D zwB × 1449-G09.2 Fab zwA (bispecific antibody, human IgG1, kappa) scFv: EVQLVQSGAEVKKPGASVKVSCKASGYDFDHYGISWVRQAPGQGLEWMGWISAYNGNTNYAQKLQGRVTMTTDTSTNTAYMELRSLRSDDTAVYYCARDVDYGTGSGYWGQGTLVTVSSGGGGSGGGGSGGGGSSYELTQPPSVSVSPGQTARITCSGDALPKQYAYWYQQKPGQAPVMVIYKDTERPSGIPERFSGSSSGTKVTLTISGVQAEDEADYYCQSADNSITYRVFGGGTKVTVLAAGSDQ[no letters for human IgG1 Fc with changes] heavy: MQVQLVESGGGVVQPGRSLRLSCAASGFTFSSYGMHWVRQAPGKGLEWVAVIWYDGSYKYYADSVKGRFTISRDNSKNTLYLQMNSLRAEDTAVYYCAREEAPENWDYALDVWGQGTTVTVSSASTKGPSVFPLAPSSKSTSGGTAALGCLVKDYFPEPVTVSWNSGALTSGVHTFPAVLQSSGLYSLSSVVTVPSSSLGTQTYICNVNHKPSNTKVDKKVEPKSCDKTHTCPPCPAPELLGGPSVFLFPPKPKDTLMISRTPEVTCVVVDVSHEDPEVKFNWYVDGVEVHNAKTKPREEQYNSTYRVVSVLTVLHQDWLNGKEYKCKVSNKALPAPIEKTISKAKGQPREPQVYVYPPSREEMTKNQVSLTCLVKGFYPSDIAVEWESNGQPENNYKTTPPVLDSDGSFALVSKLTVDKSRWQQGNVFSCSVMHEALHNHYTQKSLSLSPGK light: [no letters for about 100 residues][no letters for about 120 residues] | 1.02 nM | 0.001 s⁻¹ | 985000 M⁻¹ s⁻¹ |
| Construct Q: 1353-G10 R28D/H31D zwB × 1449-G09.2 Fab zwA (bispecific antibody, human IgG1, kappa) scFv: EVQLVQSGAEVKKPGASVKVSCKASGYDFPDYGISWVRQAPGQGLEWMGWISAYNGNTNYAQKLQGRVTMTTDTSTNTAYMELRSLRSDDTAVYYCARDVDYGTGSGYWGQGTLVTVSSGGGGSGGGGSGGGGSSYELTQPPSVSVSPGQTARITCSGDALPKQYAYWYQQKPGQAPVMVIYKDTERPSGIPERFSGSSSGTKVTLTISGVQAEDEADYYCQSADNSITYRVFGGGTKVTVLAAGSDQ[no letters for human IgG1 Fc with changes] heavy: MQVQLVESGGGVVQPGRSLRLSCAASGFTFSSYGMHWVRQAPGKGLEWVAVIWYDGSYKYYADSVKGRFTISRDNSKNTLYLQMNSLRAEDTAVYYCAREEAPENWDYALDVWGQGTTVTVSSASTKGPSVFPLAPSSKSTSGGTAALGCLVKDYFPEPVTVSWNSGALTSGVHTFPAVLQSSGLYSLSSVVTVPSSSLGTQTYICNVNHKPSNTKVDKKVEPKSCDKTHTCPPCPAPELLGGPSVFLFPPKPKDTLMISRTPEVTCVVVDVSHEDPEVKFNWYVDGVEVHNAKTKPREEQYNSTYRVVSVLTVLHQDWLNGKEYKCKVSNKALPAPIEKTISKAKGQPREPQVYVYPPSREEMTKNQVSLTCLVKGFYPSDIAVEWESNGQPENNYKTTPPVLDSDGSFALVSKLTVDKSRWQQGNVFSCSVMHEALHNHYTQKSLSLSPGK light: [no letters for about 100 residues][no letters for about 120 residues] | 4.32 nM | 0.0067 s⁻¹ | 1.55e+06 M⁻¹ s⁻¹ |
